# In the supplement of paper PMC10037445:
# Over roughly 2,900 compounds, “NF-kB SEAP reporter activity, fold change vs agonist alone” has its median near 0.99; the highest 2% begin near 2.6. This is one part of the list.
# Experiments:
# RAW-Dual [1] = assay: NF-kB SEAP reporter activity, fold change vs agonist alone; higher = enhanced NF-kB activity; conditions: library stock concentration (final ~1000-fold dilution): 10 mM
# Outline: (§1)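 RAW-Dual macrophages (50,000 cells/well in DMEM, 384-well plates) received 50 nL of library stock by pin tool, then a PRR agonist 1 h later, and were kept at 37 °C, 5% CO2. After 20 hours, supernatant was read for IRF by QuantiLuc luminescence and for NF-κB by QuantiBlue absorbance at 620 nm. Reporter activity is fold change over agonist-alone wells. Cytotoxic wells had IncuCyte confluency below 70% of agonist controls in both mask sets.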
# RAW-Dual [2] = assay: NF-kB SEAP reporter activity, fold change vs agonist alone; cytotoxicity flag (confluency mask): cytotoxic (confluency <70% of control); higher = enhanced NF-kB activity
# Outline: as §1
# RAW-Dual [3] = assay: NF-kB SEAP reporter activity, fold change vs agonist alone; cytotoxicity flag (confluency mask): not cytotoxic; higher = enhanced NF-kB activity
# Outline: as §1
# [4] = cytotoxicity flag (confluency mask): cytotoxic (confluency <70% of control), agonist: Imiquimod (TLR7) […]
# [5] = cytotoxicity flag (confluency mask): cytotoxic (confluency <70% of control), agonist: MPLA (TLR4) […]
# [6] = agonist: ODN 1826 (TLR9) 0.5 ug/mL
# [7] = agonist: Pam2CSK4 (TLR2/6) 0.1 ug/mL
# [8] = agonist: Pam3CSK4 (TLR2/1) 0.1 ug/mL
# [9] = cytotoxicity flag (confluency mask): not cytotoxic, agonist: MPLA (TLR4) […]
# [10] = cytotoxicity flag (confluency mask): not cytotoxic, agonist: Imiquimod (TLR7) […]
smiles,measurement,setting,value
NS(=O)(=O)OC[C@H]1C[C@@H](Nc2ccnc3cc(-c4cccc(SC(F)(F)F)c4)nn23)[C@H](O)[C@@H]1O,NF-kB SEAP reporter activity,RAW-Dual [1]; [4],0.145
same,NF-kB SEAP reporter activity,RAW-Dual [1]; [5],0.255
NS(=O)(=O)OC[C@H]1C[C@@H](Nc2ccnc3cc(-c4cccc(SC(F)(F)F)c4)nn23)[C@H](O)[C@@H]1O (library stock concentration (final ~1000-fold dilution): 10 mM),NF-kB SEAP reporter activity,RAW-Dual [2]; agonist: LPS (TLR4) 0.1 ug/mL,0.308
same,NF-kB SEAP reporter activity,RAW-Dual [2]; [6],0.19
same,NF-kB SEAP reporter activity,RAW-Dual [2]; [7],0.0814
same,NF-kB SEAP reporter activity,RAW-Dual [2]; [8],0.152
CCCc1nn(C)c2c(=O)[nH]c(-c3cc(S(=O)(=O)N4CCN(C)CC4)ccc3OCC)nc12.CS(=O)(=O)O (library stock concentration (final ~1000-fold dilution): 10 mM),NF-kB SEAP reporter activity,RAW-Dual [3]; agonist: LPS (TLR4) 0.1 ug/mL,1.32
same,NF-kB SEAP reporter activity,RAW-Dual [3]; [6],1.15
same,NF-kB SEAP reporter activity,RAW-Dual [3]; [7],0.846
same,NF-kB SEAP reporter activity,RAW-Dual [3]; [8],0.791
CCCc1nn(C)c2c(=O)[nH]c(-c3cc(S(=O)(=O)N4CCN(C)CC4)ccc3OCC)nc12.CS(=O)(=O)O,NF-kB SEAP reporter activity,RAW-Dual [1]; [9],1.05
O=C1c2ccccc2C(=O)C1c1ccc(Cl)cc1,NF-kB SEAP reporter activity,RAW-Dual [1]; [10],0.967
same,NF-kB SEAP reporter activity,RAW-Dual [1]; [9],1.35
O=C1c2ccccc2C(=O)C1c1ccc(Cl)cc1 (library stock concentration (final ~1000-fold dilution): 10 mM),NF-kB SEAP reporter activity,RAW-Dual [3]; agonist: LPS (TLR4) 0.1 ug/mL,1.14
same,NF-kB SEAP reporter activity,RAW-Dual [3]; [6],0.946
same,NF-kB SEAP reporter activity,RAW-Dual [3]; [7],0.939
same,NF-kB SEAP reporter activity,RAW-Dual [3]; [8],1.3
O=c1c(OC2OC(CO)C(O)C(O)C2O)c(-c2ccc(O)c(O)c2)oc2cc(O)cc(O)c12 (stereo not drawn),NF-kB SEAP reporter activity,RAW-Dual [1]; [10],1.04
same,NF-kB SEAP reporter activity,RAW-Dual [1]; [9],0.976
O=c1c(OC2OC(CO)C(O)C(O)C2O)c(-c2ccc(O)c(O)c2)oc2cc(O)cc(O)c12 (stereo not drawn) (library stock concentration (final ~1000-fold dilution): 10 mM),NF-kB SEAP reporter activity,RAW-Dual [3]; agonist: LPS (TLR4) 0.1 ug/mL,1.18
same,NF-kB SEAP reporter activity,RAW-Dual [3]; [6],1.07
same,NF-kB SEAP reporter activity,RAW-Dual [3]; [7],1.03
same,NF-kB SEAP reporter activity,RAW-Dual [3]; [8],1.06
N#CSc1cc(SC#N)c(N)nc1N (library stock concentration (final ~1000-fold dilution): 10 mM),NF-kB SEAP reporter activity,RAW-Dual [2]; agonist: LPS (TLR4) 0.1 ug/mL,0.288
same,NF-kB SEAP reporter activity,RAW-Dual [2]; [6],0.401
same,NF-kB SEAP reporter activity,RAW-Dual [2]; [7],0.504
same,NF-kB SEAP reporter activity,RAW-Dual [2]; [8],0.407
N#CSc1cc(SC#N)c(N)nc1N,NF-kB SEAP reporter activity,RAW-Dual [1]; [4],1.33
same,NF-kB SEAP reporter activity,RAW-Dual [1]; [5],0.241
Clc1ccc(Cn2c(CN3CCCC3)nc3ccccc32)cc1 (library stock concentration (final ~1000-fold dilution): 10 mM),NF-kB SEAP reporter activity,RAW-Dual [3]; agonist: LPS (TLR4) 0.1 ug/mL,0.98
same,NF-kB SEAP reporter activity,RAW-Dual [3]; [6],0.721
same,NF-kB SEAP reporter activity,RAW-Dual [3]; [7],1.08
same,NF-kB SEAP reporter activity,RAW-Dual [3]; [8],1.11
Clc1ccc(Cn2c(CN3CCCC3)nc3ccccc32)cc1,NF-kB SEAP reporter activity,RAW-Dual [1]; [10],0.973
same,NF-kB SEAP reporter activity,RAW-Dual [1]; [9],1.05
Oc1ccc2ccccc2c1SSc1c(O)ccc2ccccc12 (library stock concentration (final ~1000-fold dilution): 10 mM),NF-kB SEAP reporter activity,RAW-Dual [3]; agonist: LPS (TLR4) 0.1 ug/mL,1.04
same,NF-kB SEAP reporter activity,RAW-Dual [3]; [6],0.906
same,NF-kB SEAP reporter activity,RAW-Dual [3]; [7],0.912
same,NF-kB SEAP reporter activity,RAW-Dual [3]; [8],1.01
Oc1ccc2ccccc2c1SSc1c(O)ccc2ccccc12,NF-kB SEAP reporter activity,RAW-Dual [1]; [10],0.888
same,NF-kB SEAP reporter activity,RAW-Dual [1]; [9],0.954
COc1cc2nc(N(C)CCCNC(=O)C3CCCO3)nc(N)c2cc1OC (stereo not drawn) (library stock concentration (final ~1000-fold dilution): 10 mM),NF-kB SEAP reporter activity,RAW-Dual [3]; agonist: LPS (TLR4) 0.1 ug/mL,1.05
same,NF-kB SEAP reporter activity,RAW-Dual [3]; [6],0.857
same,NF-kB SEAP reporter activity,RAW-Dual [3]; [7],1.03
same,NF-kB SEAP reporter activity,RAW-Dual [3]; [8],1.07
COc1cc2nc(N(C)CCCNC(=O)C3CCCO3)nc(N)c2cc1OC (stereo not drawn),NF-kB SEAP reporter activity,RAW-Dual [1]; [10],0.996
same,NF-kB SEAP reporter activity,RAW-Dual [1]; [9],1.09
CCOC(=O)COc1ccc(/C=C2\SC(=S)NC2=O)cc1OC (library stock concentration (final ~1000-fold dilution): 10 mM),NF-kB SEAP reporter activity,RAW-Dual [3]; agonist: LPS (TLR4) 0.1 ug/mL,1.04
same,NF-kB SEAP reporter activity,RAW-Dual [3]; [6],0.889
same,NF-kB SEAP reporter activity,RAW-Dual [3]; [7],0.889
same,NF-kB SEAP reporter activity,RAW-Dual [3]; [8],1.1
CCOC(=O)COc1ccc(/C=C2\SC(=S)NC2=O)cc1OC,NF-kB SEAP reporter activity,RAW-Dual [1]; [10],0.985
same,NF-kB SEAP reporter activity,RAW-Dual [1]; [9],1.1
